Test results taken from the supplement of paper PMC11417369.
± gives the standard deviation of the averaged measurements. The list shows a part of the results.

The sequences below were run on PfAP2-LT AP2 domain (GST-tagged) (assay: gcPBM binding intensity (ln(normalized median fluorescence intensity)); higher = stronger DNA binding).
Summary of the method: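 GST-tagged P. falciparum DNA-binding domains, expressed in E. coli (about 25 μg on average), were applied for 1 h to an Agilent 4 × 180k array of primer-extended double-stranded 36-bp intergenic genomic probes plus negative controls. The binding buffer was 1× PBS with 1% milk, 0.2 mg/ml BSA, 0.5% salmon testes DNA and 0.03% Triton X-100. Bound protein was detected with Alexa488 anti-GST antibody and scanned at 488 nm. Binding intensity is the highest Masliner-normalised natural-log median intensity across replicate spots of either probe orientation.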

| Sequence | gcPBM binding intensity (ln) |
| --- | --- |
| AAGTAGTGTTAATACTGTACTTATATTTTTTATTAT [XGTACX_site8264] | 8.64 ± 0.52 |
| TCACATATTATCTTTACACACTATAAATAAGTTTTA [CACACA_site7335] | 8.7 ± 0.4 |
| TATACTTCTTATTAAATGAGTAGTATATATTATATA [TGCATGCA_negctrl_site299] | 8.43 ± 0.4 |
| CTATTTCATAAACACACACACACAAACAAACATATA [CACACA_site8234] | 9.95 ± 0.33 |
| CTAAAATACGAACACACACACACATATAAATAAATA [CACACA_site7872] | 10.2 ± 0.33 |
| AAAGATTGCGATGGTTGTACTTTTCTATATTTTTTT [XGTACX_site3492] | 8.94 ± 0.33 |
| AAGTACAAATTTAATAAAAATGAAACAAATATGTAT [TGCATGCA_negctrl_site94] | 8.79 ± 0.45 |
| TTTTTTAAAAGAAAATAAAAAATAAGCATAATATGA [CACACA_negctrl_site1574] | 8.21 ± 0.56 |
| AAGGGTTATTTGATATGTACTTATATATATATATAA [XGTACX_site1659] | 8.78 ± 0.29 |
| AAGGTGGAAACAATTACACACACACTAATAAAAAAA [CACACA_site9051] | 9.68 ± 0.5 |
| TAAAAAAAGGAAAACATACAATTCTATTTTTCAATA [CACACA_negctrl_site474] | 8.24 ± 0.52 |
| AAATTAAAAAAGAATATACACACCAAAACTGTTTGT [CACACA_site958] | 8.84 ± 0.45 |
| TATATAAATAGATACACACATACATACATACATACA [CACACA_site260] | 9.61 ± 0.37 |
| TATAATAATACTTATTGTACGATTAGCTTAATTCGT [XGTACX_site15] | 8.63 ± 0.38 |
| TAATTTTAAATATCTTCACACATTATATTTTTATAT [CACACA_site5411] | 8.74 ± 0.49 |
| ACCATACATACATACACACACACACGCATATTTATA [CACACA_site7386] | 10.1 ± 0.29 |
| ATGGAATTTTTAGAATATGGATAATGTTACTTAAGT [CACACA_negctrl_site494] | 8.54 ± 0.35 |
| AAAAACCATGGGCACACACACATAATATATAATATA [CACACA_site1425] | 9.75 ± 0.47 |
| GTTATATATATATATATATATATATATATTTTTTTT [GTGCAC_negctrl_site597] | 9.43 ± 0.14 |
| TATATCGTTAATTATACACACATAAAATTAAACTTT [CACACA_site1274] | 8.79 ± 0.35 |
| AAGAGAAATATATATTGTACAATAATTTTATTTGGT [XGTACX_site7642] | 8.71 ± 0.4 |
| ATATCCATAATAAAAACATGCAACAGAAAAAAAAAA [TGCATGCA_site497] | 8.88 ± 0.42 |

| Sequence | gcPBM binding intensity (ln) |
| --- | --- |
| TATATATTAATATTTACACACATGCGCACCCATAAA [CACACA_site2410] | 9.28 ± 0.38 |
| TATTTATATTCCTTTACACACTCCATCTTATATCCA [CACACA_site3604] | 8.98 ± 0.54 |
| ACCGTGGGAGGACACACACACACACCCACATATATA [CACACA_site4339] | 9.97 ± 0.4 |
| ATTTTTGTTATTACATGTACCCATAATTATTATTAA [XGTACX_site3558] | 9.01 ± 0.38 |
| AACAATTATTTGTCGACACACGTATATGTTATTTAG [CACACA_site5046] | 9.28 ± 0.41 |
| ACAAAAAAATGAAAAGAAAAAGATATACCCCAATAT [CACACA_negctrl_site509] | 9.26 ± 0.35 |
| TACGGTTGTTTATTTTGTACGTAAAAAATATATTAT [XGTACX_site8393] | 8.67 ± 0.4 |
| TATTAATTAAAAAAATGTACATAATTATAAATTTTT [XGTACX_site7994] | 8.39 ± 0.45 |
| TAATATACATATATATGTACATATATATATATATAT [XGTACX_site2684] | 9.465 ± 0.035 |
| TTCCAAAAAATTATTACACACATATGAGCACATATA [CACACA_site4543] | 8.9 ± 0.35 |
| ATATTATTCTTATATTCACACAGTTTATATTTCCGT [CACACA_site5653] | 9.15 ± 0.5 |
| AAATTACATACACGCGCACACACAAAAAAAAAAAAA [CACACA_site1335] | 9.55 ± 0.47 |
| TTAAAAAATTATTGTAGTACATAGGAAATGAAAAAA [XGTACX_site155] | 8.51 ± 0.5 |
| TAAATTAAATATTATAAACACACATATATATTATTT [CACACA_site8189] | 8.56 ± 0.43 |
| ATATAAATAAATACAACACACATGTCATATCTAAAT [CACACA_site7533] | 9.12 ± 0.39 |
| TATATACATAAAATTTGTACATATATATATATATAT [XGTACX_site3214] | 9.48 ± 0.014 |
| AAAAAAAAAAAATGAGCACACATAAATAAAAACAAA [CACACA_site8447] | 9.05 ± 0.57 |
| AATTTAAATATTTGTTGTACGTATTTATATATTCTT [XGTACX_site3623] | 8.93 ± 0.39 |
| AATATATAAACACGTACACACACATATATGTATATA [CACACA_site9168] | 9.5 ± 0.26 |
| TATTATATCTTATATGTATATTCCCACAAATTATAT [GTGCAC_negctrl_site362] | 8.61 ± 0.48 |
| ATAATATATAAACACACACACATATATAAATACATT [CACACA_site4466] | 9.83 ± 0.11 |
| CATGCCGTTAAATTATGTACTTATTATTTTAATATG [XGTACX_site4209] | 8.81 ± 0.52 |
